According to article PMC7819943, “Rice protein-binding microarrays: a tool to detect cis-acting elements near promoter regions in rice”:
This is one part of the list.

molecular target: T1, OsWOX13 (Oryza sativa, UniProt Q5QMM3 1-267); test: protein-binding microarray (RPBM); PBS, 2% BSA, 51.3 ng/ul salmon testes DNA, 50 uM zinc acetate, 200 nM TF, 25 C, 1 h; high values mean tight binding; conditions: protein: recombinant; tags: N-terminal polyhistidine and DsRed monomer fusion (pET32a); label: CyDye5-dUTP incorporated in the synthesized complementary strand; 3' TTTTT single-stranded linker to array surface; dsDNA, one strand shown
T1 sequence: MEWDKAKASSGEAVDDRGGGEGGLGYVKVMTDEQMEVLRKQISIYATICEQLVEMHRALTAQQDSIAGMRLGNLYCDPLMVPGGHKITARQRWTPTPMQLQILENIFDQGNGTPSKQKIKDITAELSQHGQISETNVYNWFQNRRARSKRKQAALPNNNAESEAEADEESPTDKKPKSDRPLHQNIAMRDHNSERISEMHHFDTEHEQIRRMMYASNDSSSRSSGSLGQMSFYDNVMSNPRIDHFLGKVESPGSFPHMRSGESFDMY
In short: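 Binding signal is defined as the fluorescence intensity of each feature in arbitrary units, read on an Axon 4000B scanner. Transcription factors with N-terminal polyhistidine and DsRed fusions came from E. coli BL21-CodonPlus and were purified on Ni–NTA. They were incubated at 200 nM for 1 h at 25 °C on a custom Agilent array that had been made double-stranded with Cy5-dUTP, with 50 µM zinc acetate present, and the array was washed.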

Sequence | binding signal
TAATTAATTATAATTAATTAATCCTACTGGTGCTTTCCTTCGGAGTCACCTAGTGCAG | 54300 fluorescence intensity (a.u.)
GTCTTCAAATTATATTAGTTATAACTATAGTTCACACAATCGGAGTCACCTAGTGCAG | 4610 fluorescence intensity (a.u.)
CTGCACGAAGTACTGACCGGAGTGTACGGGACAAGCTCCGCGGAGTCACCTAGTGCAG | 4440 fluorescence intensity (a.u.)
TCCTTTAATTATATAATAGATTTCCAGATATTCTTTTACCCGGAGTCACCTAGTGCAG | 26000 fluorescence intensity (a.u.)
TTGAGCTTTTATCTCTTGATTGGTTCTTTGTGTTATTCTCCGGAGTCACCTAGTGCAG | 6300 fluorescence intensity (a.u.)
ATGATTATGTATGTAGCTAGCCAGAGCGATTTGGAACGGACGGAGTCACCTAGTGCAG | 4670 fluorescence intensity (a.u.)
CAATAATGGTAAATTAACTAGTCAAAGTGAAAGTGTTTAGCGGAGTCACCTAGTGCAG | 18000 fluorescence intensity (a.u.)
GGCCGCTGATCAGTTTGTAATTAGTTTAATCCGAACGTACCGGAGTCACCTAGTGCAG | 19100 fluorescence intensity (a.u.)
ACAAATTAATGCATGCCAACTCCAAAGTCAAATATGTTCTCGGAGTCACCTAGTGCAG | 7230 fluorescence intensity (a.u.)
CAATGATTTAGCATTGTTTCTCACAAAACCATTCAAGTTCCGGAGTCACCTAGTGCAG | 5520 fluorescence intensity (a.u.)
TGATAAATTACCCATCTATTAGTCATACCAGTGGCTTTGTCGGAGTCACCTAGTGCAG | 18400 fluorescence intensity (a.u.)
TGTCTCTTTCTGTCTATCTCCCTCCCTGTCATTCTATCTCCGGAGTCACCTAGTGCAG | 4430 fluorescence intensity (a.u.)
CAGACGGATTATGTAATTTGTTTTATTATTAATTAGTCTACGGAGTCACCTAGTGCAG | 13100 fluorescence intensity (a.u.)
TATAGGTAGCCAATTACAAGCTAATTAAAGCAGTAACCGTCGGAGTCACCTAGTGCAG | 12500 fluorescence intensity (a.u.)
CTATTATACTGATGATAACCAATCATACTTCTCGAGGTTTCGGAGTCACCTAGTGCAG | 11300 fluorescence intensity (a.u.)
GCTGATTAGGATCTATTAAACCTGCTCTAAGGGCATCAGTCGGAGTCACCTAGTGCAG | 33000 fluorescence intensity (a.u.)
CTCTTCACATGATATTATAATTGAAGCATATAAACTTGCACGGAGTCACCTAGTGCAG | 7260 fluorescence intensity (a.u.)
ACATCACTAATTAATGTAATTTAAGTGGCTCATTTGCTCACGGAGTCACCTAGTGCAG | 31900 fluorescence intensity (a.u.)
ACTTAATAGATAATAAATATAATAGTTGTCTCTTCATATTCGGAGTCACCTAGTGCAG | 12900 fluorescence intensity (a.u.)
CTTCTGCTAGGTTTGATTGCTTCGTGTTTGATTGCGCGGTCGGAGTCACCTAGTGCAG | 13100 fluorescence intensity (a.u.)
TTGCCACTGATTAATTTTACAAGAGTTAGATTTGACTTTTCGGAGTCACCTAGTGCAG | 8860 fluorescence intensity (a.u.)
ATCATGGACATAATTTTGTTTAATCCCCACCAAATTGTCCCGGAGTCACCTAGTGCAG | 7000 fluorescence intensity (a.u.)
ATGCATGATTAATTTCTACTTTCTAGTAATAGGAAATCTCCGGAGTCACCTAGTGCAG | 11700 fluorescence intensity (a.u.)
GAACTAATCACAAATTTCCACCATACAATGCCGCTGTACTCGGAGTCACCTAGTGCAG | 13300 fluorescence intensity (a.u.)
TTCTCTAATTGAGTCAAAAGTGTCATTTGTCGTTTTGTCGCGGAGTCACCTAGTGCAG | 44200 fluorescence intensity (a.u.)
ACAAATTAGCTTGAACATACATAATTTCCAGACAAGGAAACGGAGTCACCTAGTGCAG | 19600 fluorescence intensity (a.u.)
TTTGATATAATTGTAGTGGCATATATGATAAATCAGTATACGGAGTCACCTAGTGCAG | 7900 fluorescence intensity (a.u.)

Sequence | binding signal
CCTAAATGACTTATTTGTCCATTTTGTGTCTTACGAGTTGCGGAGTCACCTAGTGCAG | 17800 fluorescence intensity (a.u.)
TTTGACAGATGTAATTATAGTACAATCGTAGTGTAATTACCGGAGTCACCTAGTGCAG | 34300 fluorescence intensity (a.u.)
CTTCCAATTTATTGGCTCACAATACATTATCTAAATCCCTCGGAGTCACCTAGTGCAG | 4520 fluorescence intensity (a.u.)
GCTGACATGATTTGGATCCTTAAACACCACAGACCAGATGCGGAGTCACCTAGTGCAG | 27000 fluorescence intensity (a.u.)
TTCAATGAAACTAATTTAATGTCATAGATGTTGGTATACTCGGAGTCACCTAGTGCAG | 4920 fluorescence intensity (a.u.)
ATACCATTAAATTGAACTTTAATTAAGTGCATATGCCTAACGGAGTCACCTAGTGCAG | 22700 fluorescence intensity (a.u.)
AACCTGCCAAACTGCCAATCCCCGTCGTCTCGTCTTCCCTCGGAGTCACCTAGTGCAG | 3920 fluorescence intensity (a.u.)
TAGCTAATAATTAATTAATTACGTCCTAATAAGCTATTGACGGAGTCACCTAGTGCAG | 35900 fluorescence intensity (a.u.)
TACTAATTTTGCTAACATAAGATACCGTACTCTCTTAATTCGGAGTCACCTAGTGCAG | 12100 fluorescence intensity (a.u.)
TCAATAATTTGAATTTGAATTTCAAATTATGACAACTTCACGGAGTCACCTAGTGCAG | 18100 fluorescence intensity (a.u.)
CTGATTTGTAACTCGTTTTGCCGCATAGTAGTTGAAAACGCGGAGTCACCTAGTGCAG | 19700 fluorescence intensity (a.u.)
ATTTGACTCGCAAATTAATCGCAATCTGTGTAATTAGTTTCGGAGTCACCTAGTGCAG | 20600 fluorescence intensity (a.u.)
GACTTGATTACCACGCGTATACTATATAGGACAAAATTGCCGGAGTCACCTAGTGCAG | 17800 fluorescence intensity (a.u.)
AATGATGGATGGGCAATGGCGCCAGCCCATAAGGCGTCAACGGAGTCACCTAGTGCAG | 6140 fluorescence intensity (a.u.)
AACTAGGTCTGTCAGCCAACAATCACAGGAATCATTGCTACGGAGTCACCTAGTGCAG | 3960 fluorescence intensity (a.u.)
TTGCAAATTAAACAAAATAGTATGATTTTGCGGAGTACTACGGAGTCACCTAGTGCAG | 15900 fluorescence intensity (a.u.)
GATAATGTTATTGTAACTGCCGCAACAAGCTGCACCGAACCGGAGTCACCTAGTGCAG | 4120 fluorescence intensity (a.u.)
CGTAGTGATTAGCATGACTATTAAAAGCACCGGGATGATACGGAGTCACCTAGTGCAG | 18600 fluorescence intensity (a.u.)
GTTGACAAGGGATTGAGTGAGTGCGTTGTAACGGTGGGCACGGAGTCACCTAGTGCAG | 7350 fluorescence intensity (a.u.)
TGATCAATTTAGAAAATTTAGAAAGGATGGAGCATATTTTCGGAGTCACCTAGTGCAG | 4260 fluorescence intensity (a.u.)
CCTTCTCAAACTAATCAATTATTATTAATTCAAAACATAGCGGAGTCACCTAGTGCAG | 21400 fluorescence intensity (a.u.)
GAGTAATTGGCAGTGATCAGCTTGCTATGATTGTGATTGACGGAGTCACCTAGTGCAG | 51500 fluorescence intensity (a.u.)
CATTGATGACACAAAATAGTAGCAACTAAACAAACCAGAACGGAGTCACCTAGTGCAG | 6690 fluorescence intensity (a.u.)
GGCTATTGATTAGGCCTTTTATTTTACTTGTTACTAGTAACGGAGTCACCTAGTGCAG | 36600 fluorescence intensity (a.u.)
GTAGTTGATAATTGGGTAATAATAAACTAATAATAGCGTCCGGAGTCACCTAGTGCAG | 17500 fluorescence intensity (a.u.)
TTAACTACAATTTGACAGAATTTTAATAAATTGAAGTGAACGGAGTCACCTAGTGCAG | 26800 fluorescence intensity (a.u.)
TTTTATCAATCTCCTATCCCTAAAACACACCTTAATAGACCGGAGTCACCTAGTGCAG | 6110 fluorescence intensity (a.u.)
